# Measured values from the supplement of paper PMC8728848.
# The other results are listed elsewhere or left out.
# B1: AAL (Agrocybe aegerita), Q6WY08 (protein)
# chain: MQGVNIYNISAGTSVDLAAPVTTGDIVTFFSSALNLNAGAGNPNNTTLNLFAENGAYLLHIAHRLQENVIIFNSRQPDGPWLVEQRVSDVANQFAGIDGKAMVTVFDHGDKYQVVINEKTVIQYTKQISGLTLSLSYNATEETSIFSTVVEAVTYTGLALEHHHHHH
# Key:
# Test in all cases: glycan array binding signal (z-score within array); higher = stronger binding
# Details in all cases: glycan notation: IUPAC condensed, linker removed; mutation: F63H
# [1] = target: Gal3S(b1-3)[Fuc(a1-4)]GlcNAc
# Method in brief: (§1)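 The binding signal is a Z-score computed within each array and averaged over linkers. Arrays of the same protein sequence at different concentrations or buffers were also averaged together. Data originate from 3228 arrays in the Consortium for Functional Glycomics database, kept only where the protein sequence was available.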
# Gal3S(b1-4)Glc = target: Gal3S(b1-4)Glc
# Method in brief: as §1
# Gal3S(b1-4)Glc6S = target: Gal3S(b1-4)Glc6S
# Method in brief: as §1
# Gal3S(b1-4)GlcNAc = target: Gal3S(b1-4)GlcNAc
# Method in brief: as §1
# [2] = target: Gal3S(b1-4)[Fuc(a1-3)]Glc6S
# Method in brief: as §1
# [3] = target: Gal3S(b1-4)[Fuc(a1-3)]GlcNAc
# Method in brief: as §1
# [4] = target: Gal3S(b1-4)[Fuc(a1-3)]GlcNAc6S
# Method in brief: as §1
# Gal3S4S(b1-4)GlcNAc = target: Gal3S4S(b1-4)GlcNAc
# Method in brief: as §1
# Gal3S6S(b1-4)GlcNAc = target: Gal3S6S(b1-4)GlcNAc
# Method in brief: as §1
# Gal3S6S(b1-4)GlcNAc6S = target: Gal3S6S(b1-4)GlcNAc6S
# Method in brief: as §1
# Gal4S(b1-4)GlcNAc = target: Gal4S(b1-4)GlcNAc
# Method in brief: as §1
# Gal4S6S(b1-4)GlcNAc = target: Gal4S6S(b1-4)GlcNAc
# Method in brief: as §1
# Gal6P(b1-4)GlcNAc = target: Gal6P(b1-4)GlcNAc
# Method in brief: as §1
# Gal6S(b1-3)GlcNAc = target: Gal6S(b1-3)GlcNAc
# Method in brief: as §1
# Gal6S(b1-3)GlcNAc6S = target: Gal6S(b1-3)GlcNAc6S
# Method in brief: as §1
# Gal6S(b1-4)Glc = target: Gal6S(b1-4)Glc
# Method in brief: as §1
# Gal6S(b1-4)Glc6S = target: Gal6S(b1-4)Glc6S
# Method in brief: as §1
# Gal6S(b1-4)GlcNAc = target: Gal6S(b1-4)GlcNAc
# Method in brief: as §1
# Gal6S(b1-4)GlcNAc6S = target: Gal6S(b1-4)GlcNAc6S
# Method in brief: as §1
# GalNAc(a1-3)Gal = target: GalNAc(a1-3)Gal
# Method in brief: as §1
# GalNAc(a1-3)GalNAc = target: GalNAc(a1-3)GalNAc
# Method in brief: as §1
# [5] = target: GalNAc(a1-3)GalNAc(b1-3)Gal(a1-4)Gal(b1-4)Glc
# Method in brief: as §1
# [6] = target: GalNAc(a1-3)GalNAc(b1-3)Gal(a1-4)Gal(b1-4)GlcNAc
# Method in brief: as §1
# GalNAc(b1-3)Gal = target: GalNAc(b1-3)Gal
# Method in brief: as §1
# [7] = target: GalNAc(b1-3)Gal(a1-4)Gal(b1-4)GlcNAc
# Method in brief: as §1
# [8] = target: GalNAc(b1-3)Gal(a1-4)Gal(b1-4)GlcNAc(b1-3)Gal(b1-4)Glc
# Method in brief: as §1
# [9] = target: GalNAc(b1-3)Gal(a1-6)Gal(b1-4)Glc
# Method in brief: as §1
# GalNAc(b1-3)GalNAc = target: GalNAc(b1-3)GalNAc
# Method in brief: as §1
# GalNAc(b1-3)GlcNAc = target: GalNAc(b1-3)GlcNAc
# Method in brief: as §1
# GalNAc(b1-4)Gal(b1-4)Glc = target: GalNAc(b1-4)Gal(b1-4)Glc
# Method in brief: as §1
# GalNAc(b1-4)GlcNAc = target: GalNAc(b1-4)GlcNAc
# Method in brief: as §1
# [10] = target: GalNAc(b1-4)GlcNAc(b1-2)Man
# Method in brief: as §1
# [11] = target: GalNAc(b1-4)GlcNAc(b1-2)Man(a1-3)[GalNAc(b1-4)GlcNAc(b1-2)Man(a1-6)]Man(b1-4)GlcNAc(b1-4)GlcNAc
# Method in brief: as §1
# [12] = target: GalNAc(b1-4)GlcNAc(b1-3)GalNAc(b1-4)GlcNAc
# Method in brief: as §1
# GalNAc(b1-4)GlcNAc6S = target: GalNAc(b1-4)GlcNAc6S
# Method in brief: as §1
# GalNAc(b1-6)GalNAc = target: GalNAc(b1-6)GalNAc
# Method in brief: as §1
# GalNAc3S(b1-4)GlcNAc = target: GalNAc3S(b1-4)GlcNAc
# Method in brief: as §1
# GalNAc3S(b1-4)GlcNAc3S = target: GalNAc3S(b1-4)GlcNAc3S
# Method in brief: as §1
# [13] = target: GalNAc3S(b1-4)[Fuc(a1-3)]GlcNAc
# Method in brief: as §1
# GalNAc4S6S(b1-4)GlcNAc = target: GalNAc4S6S(b1-4)GlcNAc
# Method in brief: as §1
# GalNAc6S(b1-4)GlcNAc = target: GalNAc6S(b1-4)GlcNAc
# Method in brief: as §1
# Glc(a1-4)Glc = target: Glc(a1-4)Glc
# Method in brief: as §1
# [14] = target: Glc(a1-4)Glc(a1-4)Glc(a1-4)Glc
# Method in brief: as §1
# Glc(a1-6)Glc(a1-6)Glc = target: Glc(a1-6)Glc(a1-6)Glc
# Method in brief: as §1
# [15] = target: Glc(a1-6)Glc(a1-6)Glc(a1-6)Glc
# Method in brief: as §1
binder,measurement,setting,value
B1,glycan array binding signal (z-score),[1],-0.366
same,glycan array binding signal (z-score),Gal3S(b1-4)Glc,0.114
same,glycan array binding signal (z-score),Gal3S(b1-4)Glc6S,0.157
same,glycan array binding signal (z-score),Gal3S(b1-4)GlcNAc,-0.435
same,glycan array binding signal (z-score),[2],0.621
same,glycan array binding signal (z-score),[3],0.004
same,glycan array binding signal (z-score),[4],0.23
same,glycan array binding signal (z-score),Gal3S4S(b1-4)GlcNAc,-0.442
same,glycan array binding signal (z-score),Gal3S6S(b1-4)GlcNAc,0.373
same,glycan array binding signal (z-score),Gal3S6S(b1-4)GlcNAc6S,0.234
same,glycan array binding signal (z-score),Gal4S(b1-4)GlcNAc,-0.569
same,glycan array binding signal (z-score),Gal4S6S(b1-4)GlcNAc,0.214
same,glycan array binding signal (z-score),Gal6P(b1-4)GlcNAc,-0.047
same,glycan array binding signal (z-score),Gal6S(b1-3)GlcNAc,0.062
same,glycan array binding signal (z-score),Gal6S(b1-3)GlcNAc6S,-0.041
same,glycan array binding signal (z-score),Gal6S(b1-4)Glc,0.11
same,glycan array binding signal (z-score),Gal6S(b1-4)Glc6S,0.037
same,glycan array binding signal (z-score),Gal6S(b1-4)GlcNAc,-0.062
same,glycan array binding signal (z-score),Gal6S(b1-4)GlcNAc6S,0.152
same,glycan array binding signal (z-score),GalNAc(a1-3)Gal,-0.08
same,glycan array binding signal (z-score),GalNAc(a1-3)GalNAc,-0.062
same,glycan array binding signal (z-score),[5],0.167
same,glycan array binding signal (z-score),[6],-0.194
same,glycan array binding signal (z-score),GalNAc(b1-3)Gal,-0.032
same,glycan array binding signal (z-score),[7],0.48
same,glycan array binding signal (z-score),[8],-0.28
same,glycan array binding signal (z-score),[9],0.457
same,glycan array binding signal (z-score),GalNAc(b1-3)GalNAc,-0.564
same,glycan array binding signal (z-score),GalNAc(b1-3)GlcNAc,-0.08
same,glycan array binding signal (z-score),GalNAc(b1-4)Gal(b1-4)Glc,0.241
same,glycan array binding signal (z-score),GalNAc(b1-4)GlcNAc,0.406
same,glycan array binding signal (z-score),[10],-0.335
same,glycan array binding signal (z-score),[11],-0.287
same,glycan array binding signal (z-score),[12],-0.049
same,glycan array binding signal (z-score),GalNAc(b1-4)GlcNAc6S,0.403
same,glycan array binding signal (z-score),GalNAc(b1-6)GalNAc,-0.338
same,glycan array binding signal (z-score),GalNAc3S(b1-4)GlcNAc,0.412
same,glycan array binding signal (z-score),GalNAc3S(b1-4)GlcNAc3S,0.59
same,glycan array binding signal (z-score),[13],-0.332
same,glycan array binding signal (z-score),GalNAc4S6S(b1-4)GlcNAc,0.108
same,glycan array binding signal (z-score),GalNAc6S(b1-4)GlcNAc,-0.052
same,glycan array binding signal (z-score),Glc(a1-4)Glc,-0.457
same,glycan array binding signal (z-score),[14],0.261
same,glycan array binding signal (z-score),Glc(a1-6)Glc(a1-6)Glc,-0.347
same,glycan array binding signal (z-score),[15],-0.408
